# Reference: article PMC7819943, “Rice protein-binding microarrays: a tool to detect cis-acting elements near promoter regions in rice”
# The list shows a part of the results.
# Target: T1, OsWOX13 (Oryza sativa, UniProt Q5QMM3 1-267)
# T1 sequence: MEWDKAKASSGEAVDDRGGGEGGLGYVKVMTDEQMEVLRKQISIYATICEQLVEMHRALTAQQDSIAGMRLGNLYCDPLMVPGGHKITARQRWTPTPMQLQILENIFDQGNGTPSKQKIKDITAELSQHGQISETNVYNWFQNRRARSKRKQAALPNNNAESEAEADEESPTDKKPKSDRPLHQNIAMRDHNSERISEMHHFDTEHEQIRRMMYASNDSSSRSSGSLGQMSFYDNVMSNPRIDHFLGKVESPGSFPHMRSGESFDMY
# Assay: protein-binding microarray (RPBM); PBS, 2% BSA, 51.3 ng/ul salmon testes DNA, 50 uM zinc acetate, 200 nM TF, 25 C, 1 h; high values mean tight binding
# Conditions: protein: recombinant; tags: N-terminal polyhistidine and DsRed monomer fusion (pET32a); label: CyDye5-dUTP incorporated in the synthesized complementary strand; 3' TTTTT single-stranded linker to array surface; dsDNA, one strand shown
# Summary of the method: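 Using Ni–NTA, transcription factors fused N-terminally to polyhistidine and DsRed were purified after expression in E. coli BL21-CodonPlus. These were incubated at 200 nM with a blocked, double-stranded custom Agilent array for 1 h at 25 °C in a buffer containing 50 µM zinc acetate, and the array was washed. The binding signal is per-feature fluorescence intensity (arbitrary units) on an Axon 4000B scanner.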
row,Sequence,binding signal
1,ATGACCAATTTTCAGGAAATTTAACGGCGGTTTTATTTCCCGGAGTCACCTAGTGCAG,4040 fluorescence intensity (a.u.)
2,CATCAAATTACGGAAGCCATAATCCAAGGCCATGGAATCACGGAGTCACCTAGTGCAG,4000 fluorescence intensity (a.u.)
3,TTGACATTCTTTATTTATTTAAATTAATTTAGATAAAGTTCGGAGTCACCTAGTGCAG,13000 fluorescence intensity (a.u.)
4,CCTTAATTATAATCCATGTAGACGTCAACGTATGATAAAGCGGAGTCACCTAGTGCAG,34000 fluorescence intensity (a.u.)
5,AGAGATGAGATTAGGATGATTGGCATGTGAGCTGATATTTCGGAGTCACCTAGTGCAG,32300 fluorescence intensity (a.u.)
6,GATGTAATTTCTTAGAATTGAGCGCTTGTCAATACTTATTCGGAGTCACCTAGTGCAG,10100 fluorescence intensity (a.u.)
7,AAATGGCCGTTGATTGACTTGAGGAGAAATAGTTCTTCCTCGGAGTCACCTAGTGCAG,36300 fluorescence intensity (a.u.)
8,TGTAAATTGTTTTCTATTTGTTAATATCAAGTAGCACACACGGAGTCACCTAGTGCAG,12800 fluorescence intensity (a.u.)
9,AAAATTATTAGCACATGATTAATTAAGTTTTAATTAATACCGGAGTCACCTAGTGCAG,22700 fluorescence intensity (a.u.)
10,GAGTATATATGACATGTCTAATTGAGGGTGTCTAACGTAACGGAGTCACCTAGTGCAG,7540 fluorescence intensity (a.u.)
11,TCTGATGGATAAGGTCAGTTGGGAATTCTTCAAACTTCAACGGAGTCACCTAGTGCAG,12600 fluorescence intensity (a.u.)
12,AATAATAGAAGATTAGCTATTACATTGGTTATAAATGATTCGGAGTCACCTAGTGCAG,11200 fluorescence intensity (a.u.)
13,GCAAAATAAATATAGATAGAAAATTAGGATTTATGTCAAGCGGAGTCACCTAGTGCAG,5930 fluorescence intensity (a.u.)
14,GTCATTTGATTTATTTTACATATTCTCTAGATGGCTGTGACGGAGTCACCTAGTGCAG,6590 fluorescence intensity (a.u.)
15,AAAATAGTTAATACTCAATTAATCATGAGCTAATGGCTCACGGAGTCACCTAGTGCAG,9240 fluorescence intensity (a.u.)
16,GTTAATTGGCCTAACGTCCTAAACTGGACAACGCGCATTGCGGAGTCACCTAGTGCAG,37200 fluorescence intensity (a.u.)
17,CAACCACCTCATCATCATCATTATAATCAAGATCATTACCCGGAGTCACCTAGTGCAG,3440 fluorescence intensity (a.u.)
18,CCGTATAAATTGCCTGTATGCTAAATAGAACCACTTTACACGGAGTCACCTAGTGCAG,9050 fluorescence intensity (a.u.)
19,GGCAAATTAGCTGGCTAAGCTGGCTATTACTAGTAGCTTTCGGAGTCACCTAGTGCAG,11500 fluorescence intensity (a.u.)
20,TGCACACCCTGTCATGAACTAATTAGCTCGATCATCACACCGGAGTCACCTAGTGCAG,11700 fluorescence intensity (a.u.)
21,AAGTGATTAAATTGGCACTATAAACATGTAGTTTTGTAATCGGAGTCACCTAGTGCAG,27500 fluorescence intensity (a.u.)

row,Sequence,binding signal
1,TGAGAGTGGCATTTAATTGAATCCTATTATGATGGTGGCACGGAGTCACCTAGTGCAG,16100 fluorescence intensity (a.u.)
2,TATAATTATTTCATATTTTATCTACTCCCAATGCTTTGCCCGGAGTCACCTAGTGCAG,27000 fluorescence intensity (a.u.)
3,GGTTTTGATATATATAATCTCCTGGAACTGATATCCTGAACGGAGTCACCTAGTGCAG,5480 fluorescence intensity (a.u.)
4,TAATCATAGACTAATTAGGCTCAAAAGATTCGTCTAGTGACGGAGTCACCTAGTGCAG,3390 fluorescence intensity (a.u.)
5,GTTAAATTTAAACTTGTATATTTGTGAAGTGATACATCACCGGAGTCACCTAGTGCAG,17300 fluorescence intensity (a.u.)
6,ACATGTGATTGGCACAGAAGGATAAATCCTCAACTTTCAACGGAGTCACCTAGTGCAG,20200 fluorescence intensity (a.u.)
7,ATGTTACATGTAACTAAACTAATTTAATCTCGTAGATGTACGGAGTCACCTAGTGCAG,7890 fluorescence intensity (a.u.)
8,TTGACCAATCAATTACTCACTGGTACGGAAAACACTATAGCGGAGTCACCTAGTGCAG,23300 fluorescence intensity (a.u.)
9,TTCAATTGACGTCATAGAATCTATGGCATTAGACACATCTCGGAGTCACCTAGTGCAG,9210 fluorescence intensity (a.u.)
10,CACAGTTGACGAGCTAGATCCAGATGAGTGAGGTTGTGAGCGGAGTCACCTAGTGCAG,4960 fluorescence intensity (a.u.)
11,ACCTATTACCGTTTAAATTGGAAGATAGATATTGGATGAGCGGAGTCACCTAGTGCAG,19600 fluorescence intensity (a.u.)
12,AAATAATTGTAATTCTAGAGTACTAATTGCCCCATCAATCCGGAGTCACCTAGTGCAG,34700 fluorescence intensity (a.u.)
13,CGCTGCGCTAATCACGCGCGGTCAGACGTTGACTACCATGCGGAGTCACCTAGTGCAG,7420 fluorescence intensity (a.u.)
14,GTGCAGATTATAATTTGATTACTAATTTAGGAGAGGAAATCGGAGTCACCTAGTGCAG,29500 fluorescence intensity (a.u.)
15,GCTTAATCAATCACCTCATCACACACTCTTAGCTAAGCTACGGAGTCACCTAGTGCAG,38400 fluorescence intensity (a.u.)
16,TGTCATGTCTAATATAAATTTATTTGAGATCTATAGGTAACGGAGTCACCTAGTGCAG,14400 fluorescence intensity (a.u.)
17,CATCATCTGATCTGATGATCAATCAAAATCTCCTACTAGTCGGAGTCACCTAGTGCAG,13500 fluorescence intensity (a.u.)
18,ATAAGTTAATTTTCATTTGTTGGTCAACTGCAATATTTGACGGAGTCACCTAGTGCAG,7110 fluorescence intensity (a.u.)
19,AAAACTCAATTAATTATACATTAATACCACCTTATTTTACCGGAGTCACCTAGTGCAG,20000 fluorescence intensity (a.u.)
20,TCAGCTTCATAATTATCTCAGTAACAGAACTGAACACATTCGGAGTCACCTAGTGCAG,7150 fluorescence intensity (a.u.)
21,CAGTTCCAATCACACAACGCGACTGGCCACACCGGATGTGCGGAGTCACCTAGTGCAG,15600 fluorescence intensity (a.u.)
